The other results are listed elsewhere or left out. These are noisy estimates, calculated here from bound and input reads.

The assay has as its target T1, Pho4 (S. cerevisiae) (UniProt P07270).
T1 sequence: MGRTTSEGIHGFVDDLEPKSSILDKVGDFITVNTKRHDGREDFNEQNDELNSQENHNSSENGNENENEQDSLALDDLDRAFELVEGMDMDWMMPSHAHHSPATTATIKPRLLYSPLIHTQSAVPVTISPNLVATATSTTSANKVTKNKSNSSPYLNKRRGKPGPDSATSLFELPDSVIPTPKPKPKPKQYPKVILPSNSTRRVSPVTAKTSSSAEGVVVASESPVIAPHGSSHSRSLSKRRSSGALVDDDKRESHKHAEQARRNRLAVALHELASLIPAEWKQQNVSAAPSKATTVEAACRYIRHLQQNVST
Kind of assay: relative binding free energy (BET-seq); higher = weaker binding. As to conditions: reference: library average.
In the case of CTTTTCACGTGGGGGA, the “relative binding free energy” value was 0.02 kcal/mol. GATGGCACGTGATGCG: the “relative binding free energy” value was 0.17 kcal/mol. For TTATTCACGTGCGTAA, the “relative binding free energy” value was determined as 0.19 kcal/mol.

On to TTAGGCACGTGATACA, for which the “relative binding free energy” value was -0.05 kcal/mol. The figure for GAAGTCACGTGGTATG is 0.24 kcal/mol. The figure for GGGTTCACGTGCTGGG is 0.33 kcal/mol.

In the case of GCTAGCACGTGTATGG, the “relative binding free energy” value was determined as 0.02 kcal/mol. CGAGACACGTGTAGGG: the “relative binding free energy” value came out at 0.05 kcal/mol. The same measure for AGTGACACGTGAGCGG: -0.03 kcal/mol; for CCGGGCACGTGATGTG: -0.02 kcal/mol; for GGGTGCACGTGCGTAA: -0.17 kcal/mol. The same measure for TGGCTCACGTGCGTGT: 0.15 kcal/mol. The figure for TGTGGCACGTGAGCTA is -0.01 kcal/mol; for ATTGGCACGTGTTGGC it is -0.07 kcal/mol; for GTGTCCACGTGGTATG it is -0.02 kcal/mol. Take ATAAGCACGTGATGTG: the “relative binding free energy” value is 0.01 kcal/mol. CGGTACACGTGATAGG: the “relative binding free energy” value worked out at 0.05 kcal/mol. The same measure for GTGGACACGTGGTGAG: 0.02 kcal/mol; for TAGCGCACGTGGTAGT: -0.07 kcal/mol. On to TGGGCCACGTGGGCTA, for which the “relative binding free energy” value was -0.24 kcal/mol. The same measure for AGGGACACGTGAGGAG: 0.25 kcal/mol; for TGGGACACGTGACTGG: 0.07 kcal/mol.

With CGGGGCACGTGCGTAT, the “relative binding free energy” value was -0.25 kcal/mol.

Consider AGATGCACGTGAAGAT, for which the “relative binding free energy” value was found to be 0.16 kcal/mol. In the case of GTGTGCACGTGTTCAG, the “relative binding free energy” value is -0.02 kcal/mol. The figure for GGATCCACGTGATGGG is 0.28 kcal/mol.

For the sequence TATGGCACGTGATCAT, the “relative binding free energy” value is -0.15 kcal/mol. With TGAGGCACGTGATTAA, the “relative binding free energy” value was -0.03 kcal/mol. Turning to GGGGACACGTGTAGGT, the “relative binding free energy” value is 0 kcal/mol. The same measure for TTTGTCACGTGTGAAT: 0.16 kcal/mol; for ATTATCACGTGGTTCA: -0.03 kcal/mol. Turning to ACTGTCACGTGTGATT, the “relative binding free energy” value was found to be 0.08 kcal/mol. The figure for ATGGTCACGTGAAGTC is 0.29 kcal/mol; for TTACGCACGTGGGTCT it is -0.26 kcal/mol; for TATTGCACGTGGTCTA it is -0.25 kcal/mol. The same measure for TTGTTCACGTGGAGTA: 0.28 kcal/mol; for CTAGTCACGTGAGGGC: 0.27 kcal/mol. The figure for AGATTCACGTGTGTTG is 0.26 kcal/mol. In the case of GTACGCACGTGCGTTT, the “relative binding free energy” value came to 0.06 kcal/mol. The figure for CGTTTCACGTGTAGCT is 0.29 kcal/mol. Turning to AGGCTCACGTGGTTTA, the “relative binding free energy” value came to 0.16 kcal/mol.

As for GGTGACACGTGACGGG, the “relative binding free energy” value was found to be 0.16 kcal/mol. The figure for ACAGGCACGTGTTTGT is -0.15 kcal/mol; for TTTATCACGTGTCGTT it is 0.27 kcal/mol; for GCTGGCACGTGGGGAA it is -0.18 kcal/mol. With AAATGCACGTGTGTAG, the “relative binding free energy” value was -0.01 kcal/mol. The figure for GGATGCACGTGGTGAA is -0.02 kcal/mol; for ATCTGCACGTGGGTAT it is -0.13 kcal/mol; for GGCAGCACGTGTGGTG it is 0.06 kcal/mol. The figure for CTGGTCACGTGTGGGA is 0.17 kcal/mol; for ATATACACGTGTATAT it is 0.11 kcal/mol. Consider TGTTGCACGTGATTTG, for which the “relative binding free energy” value was 0.21 kcal/mol. The same measure for TGGTCCACGTGTAAGT: -0.01 kcal/mol; for TTTTACACGTGCGGGG: 0.04 kcal/mol; for AGTGCCACGTGTGGGT: -0.02 kcal/mol. The same measure for AATTGCACGTGAGCGA: 0.31 kcal/mol; for TCATTCACGTGGGATT: 0.21 kcal/mol; for TGTAACACGTGTTTTC: -0.02 kcal/mol.

For ATGGACACGTGTGTTA, the “relative binding free energy” value was -0.01 kcal/mol. The same measure for ATTTTCACGTGGTTTC: 0.07 kcal/mol. The figure for AATTTCACGTGTTGGT is 0.18 kcal/mol; for TATTGCACGTGTATTA it is 0.03 kcal/mol. The same measure for TCCGTCACGTGGGTTA: -0.07 kcal/mol. As for TTGCGCACGTGTGTAT, the “relative binding free energy” value was -0.12 kcal/mol. As to TGCATCACGTGGTGTT, the “relative binding free energy” value came to 0.03 kcal/mol. The figure for GGATACACGTGGGTGT is -0.08 kcal/mol; for TTGAACACGTGTAAGA it is 0.21 kcal/mol. The figure for TTTATCACGTGTCTAA is 0.2 kcal/mol; for GTTGGCACGTGATTGA it is 0.06 kcal/mol. The same measure for GGTGGCACGTGTTCCG: -0.05 kcal/mol; for TTGTACACGTGGCGGA: -0.08 kcal/mol; for TTCTACACGTGGATTG: 0.01 kcal/mol.

CCGGTCACGTGATTGG: the “relative binding free energy” value came to 0.23 kcal/mol. The same measure for GGATTCACGTGTTATT: 0.37 kcal/mol.

For the sequence TTAAACACGTGGGTGC, the “relative binding free energy” value was -0.2 kcal/mol. The same measure for AAGATCACGTGGAAGG: 0.16 kcal/mol; for TTGTTCACGTGGGACT: 0.26 kcal/mol; for TGCTTCACGTGAGATT: 0.29 kcal/mol. The figure for TTTAACACGTGCGAGT is -0.05 kcal/mol.

As to GTTTGCACGTGTCATT, the “relative binding free energy” value is -0.04 kcal/mol. Regarding CTTATCACGTGGGGTA, the “relative binding free energy” value is -0.12 kcal/mol. The same measure for TAGTGCACGTGTTTGT: -0.09 kcal/mol; for ATGATCACGTGTAGAT: 0.19 kcal/mol; for TGTTTCACGTGTGCGA: 0.23 kcal/mol.

Consider CGGGGCACGTGAAGGT, for which the “relative binding free energy” value is 0.22 kcal/mol. The figure for TTCAACACGTGTTTTG is 0.1 kcal/mol; for AGTTTCACGTGGGATA it is 0.26 kcal/mol. The figure for GGGGACACGTGTGTCG is 0.11 kcal/mol; for CGGTGCACGTGAGTTT it is 0.25 kcal/mol. CTGGTCACGTGAGTTG: the “relative binding free energy” value is 0.36 kcal/mol.

As for GGTTCCACGTGTTATA, the “relative binding free energy” value came to 0.24 kcal/mol. Regarding GGTATCACGTGGATTA, the “relative binding free energy” value amounted to 0.28 kcal/mol. The figure for GGAGTCACGTGGAAAG is 0.06 kcal/mol; for ATTAGCACGTGAAGTT it is 0.24 kcal/mol. The figure for GTTGGCACGTGCTAGC is 0.11 kcal/mol; for TCGGTCACGTGCGTTT it is -0.06 kcal/mol; for GAAGGCACGTGTGTTG it is 0 kcal/mol. The figure for GTTGGCACGTGTTTCG is 0.08 kcal/mol; for CTCGTCACGTGTTTGT it is 0.12 kcal/mol.

In the case of GGGGTCACGTGGAAGA, the “relative binding free energy” value came out at 0.1 kcal/mol. Take TCAGTCACGTGATGTA: the “relative binding free energy” value worked out at 0.23 kcal/mol.

Consider GATTCCACGTGGGGAG, for which the “relative binding free energy” value worked out at 0.08 kcal/mol. The figure for TGGTGCACGTGATGGG is 0.11 kcal/mol; for TGGGACACGTGAGACT it is 0.4 kcal/mol. The same measure for CCGTACACGTGTTGGT: 0.11 kcal/mol. With GTGGTCACGTGGATGA, the “relative binding free energy” value is 0.17 kcal/mol. The same measure for GCTCGCACGTGGGGAA: 0.06 kcal/mol.

On to GGTGACACGTGGTTAG, for which the “relative binding free energy” value stood at 0.02 kcal/mol. The figure for AGTTGCACGTGGCGTG is -0.07 kcal/mol; for AGTGACACGTGTGCGT it is -0.07 kcal/mol. The figure for TTCTTCACGTGTATAA is 0.34 kcal/mol; for GGTGGCACGTGTTCGC it is -0.05 kcal/mol.

In the case of TATTGCACGTGGCTAG, the “relative binding free energy” value is -0.03 kcal/mol. The same measure for GTATACACGTGAGTTG: 0.22 kcal/mol; for AGTATCACGTGTCTAT: 0.06 kcal/mol.

Values taken from the BET-seq Pho4 binding data (Le et al. 2018).
